Here are results for 36 molecules from the supplement of paper PMC9446081.

Screen size: about 39,000 compounds; about 220 (0.56%) showed activity. This is one part of the list.
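Note: static incubation at 37 °C against the wild-type strain, values averaged over two biological replicates.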

The subject of the assay is Escherichia coli K-12 BW25113. The experiment in a line: relative growth (OD600 normalised to plate interquartile mean) (fraction); higher = less growth inhibition, active = 0.2 or less. The following applies: 50 µM; LB; incubation time: overnight (16-24 h).
As to `COc1ccc(N2CCn3c2nnc(C(=O)NCCO)c3=O)cc1`, the relative growth was inactive: 1.02.
As to `O=C(O)Cc1ccc(CO)cc1`, the relative growth is inactive: 1.01.
As to `CC(C)(O)/C=C/C(=O)[C@](C)(O)[C@H]1[C@H](O)C[C@@]2(C)[C@@H]3CC=C4[C@@H](C=C(O[C@@H]5O[C@H](CO)[C@@H](O)[C@H](O)[C@H]5O)C(=O)C4(C)C)[C@]3(C)C(=O)C[C@]12C`, the relative growth is inactive: 1.01.
As to `C[C@H]1CCCCO[C@@H](CN(C)Cc2ccc3c(c2)OCO3)[C@@H](C)CN([C@@H](C)CO)C(=O)c2cc(NS(=O)(=O)c3ccc(Cl)cc3)ccc2O1`, the relative growth was inactive: 1.
`Nc1nc(N)c2nc(CNc3ccc(C(=O)NC(CCC(=O)O)C(=O)O)cc3)cnc2n1` (stereo unspecified): the relative growth was inactive: 0.992.
`C[C@@H]1CN([C@H](C)CO)C(=O)Cc2cc(NC(=O)Nc3ccccc3)ccc2O[C@@H]1CN(C)C(=O)Nc1ccc(C(F)(F)F)cc1`: the relative growth is inactive: 0.975.
On to `C[C@H](CO)N1C[C@H](C)[C@H](CN(C)Cc2ccncc2)OCCCC[C@H](C)Oc2ccc(NC(=O)CCC(F)(F)F)cc2C1=O`, for which the relative growth was inactive: 1.05.
`C[C@H](CO)N1C[C@H](C)[C@@H](CN(C)C(=O)Nc2ccc(C(F)(F)F)cc2)OCCCC[C@H](C)Oc2ccc(NC(=O)Nc3cccc4ccccc34)cc2C1=O`: the relative growth is inactive: 1.01.
As to `C[C@H]1CN([C@@H](C)CO)C(=O)c2cc(NC(=O)Nc3ccc(F)cc3)ccc2O[C@@H]1CN(C)S(C)(=O)=O`, the relative growth is inactive: 0.991.
Then `C[C@H](CO)N1C[C@H](C)[C@H](CN(C)C(=O)c2ccncc2)OCCCC[C@H](C)Oc2ccc(NC(=O)C3CCCCC3)cc2C1=O`, with inactive: 1.01; and `CC(C)C#Cc1cnc2c(c1)C(=O)N([C@H](C)CO)C[C@H](C)[C@H](CN(C)S(=O)(=O)c1cn(C)cn1)O2`, with inactive: 1.02; and `C[C@@H]1CCCCO[C@@H](CN(C)CC2CC2)[C@@H](C)CN([C@H](C)CO)C(=O)c2cc(NC(=O)Nc3ccc(F)cc3)ccc2O1`, with inactive: 1.
Then `C[C@H](CO)N1C[C@H](C)[C@H](CN(C)Cc2ccc(-c3ccccc3)cc2)Oc2c(NC(=O)C3CC3)cccc2C1=O`, with inactive: 0.982.
With `CC(C)NC(=O)Nc1ccc2c(c1)C(=O)N([C@@H](C)CO)C[C@H](C)[C@@H](CN(C)Cc1ccc(Oc3ccccc3)cc1)O2`, the relative growth is inactive: 1.
In the case of `C[C@H](CO)N1C[C@H](C)[C@H](CN(C)Cc2ccc3c(c2)OCO3)Oc2ccc(NC(=O)Nc3ccc(C(F)(F)F)cc3)cc2C1=O`, the relative growth was inactive: 0.986.
With `COc1ccc(NC(=O)Nc2ccc3c(c2)C(=O)N([C@@H](C)CO)C[C@@H](C)[C@@H](CN(C)S(=O)(=O)c2ccc(F)cc2)OCCCC[C@@H](C)O3)cc1`, the relative growth is inactive: 1.02.
In the case of `CCCN(C)C[C@H]1Oc2cc(C#Cc3ccccc3OC)ccc2S(=O)(=O)N([C@H](C)CO)C[C@H]1C`, the relative growth was inactive: 0.985.
For `CC1=C2C/C=C(\C)[C@H](O[C@H]3O[C@@H](CO)[C@@H](O)[C@@H](O)[C@@H]3O)C/C=C(\C)C[C@@H]2OC1=O`, the relative growth is inactive: 0.983.
With `C=CCCC(=O)N(C)[C@H](C)[C@H](OC(=O)[C@@H]1[C@@H]2C=C[C@]3(O2)[C@H](C(=O)N(CC=C)Cc2ccccc2)N(C(C)(C)C)C(=O)[C@@H]13)c1ccccc1`, the relative growth was inactive: 1.03.
For `CN1CCN(C(=O)C[C@H]2C[C@H]3c4cc(NC(=O)c5ccc6c(c5)OCO6)ccc4O[C@H]3[C@@H](CO)O2)CC1`, the relative growth is inactive: 1.01.
With `Cc1ccc(S(=O)(=O)Nc2ccc3c(c2)C(=O)N([C@H](C)CO)C[C@@H](C)[C@@H](CN(C)C(=O)Nc2ccccc2)OCCCC[C@H](C)O3)cc1`, the relative growth was inactive: 1.04.
Turning to `C[C@@H]1CCCCO[C@@H](CN(C)C(=O)C2CCCCC2)[C@@H](C)CN([C@@H](C)CO)C(=O)c2cc(NC(=O)Cc3ccccc3)ccc2O1`, the relative growth is inactive: 1.01.
`C[C@H](CO)N1C[C@H](C)[C@H](CN(C)S(=O)(=O)c2cccs2)Oc2ccc(NC(=O)Cn3cnnn3)cc2C1=O`: the relative growth is inactive: 0.984.
Consider `Cc1cccc(C(=O)O)c1O`, for which the relative growth was inactive: 1.03.
In the case of `CCCNC(=O)Nc1ccc2c(c1)OC[C@H](C)N(C(=O)C1CCOCC1)C[C@H](C)[C@H](OC)CN(C)C2=O` it was inactive: 1.03; in that of `Cc1ccc2c(Br)cc(Br)c(OC(=O)c3ccccc3)c2n1`, inactive: 0.528; in that of `CC(C)C[C@](O)(C(=O)OCc1ccc(O[C@@H]2O[C@H](CO)[C@@H](O)[C@H](O)[C@H]2O)cc1)[C@@H](O)C(=O)OCc1ccc(O[C@@H]2O[C@H](CO)[C@@H](O)[C@H](O)[C@H]2O)cc1`, inactive: 1.01.
In the case of `C[C@@H]1CCCCO[C@H](CN(C)Cc2ccc3c(c2)OCO3)[C@H](C)CN([C@@H](C)CO)C(=O)c2cc(NC(=O)Nc3cccc4ccccc34)ccc2O1` it was inactive: 1.03; in that of `C[C@@H]1CN([C@@H](C)CO)C(=O)Cc2cc(NC(=O)C3CCCCC3)ccc2O[C@@H]1CN(C)S(=O)(=O)c1cn(C)cn1`, inactive: 0.985; in that of `O=C(O)c1n[nH]c2c1CCCC2`, inactive: 0.985.
Then `CC(=O)O[C@H](C)[C@H]1[C@@](C)(O)CC(=O)[C@]23O[C@]12C(=O)c1ccc(-c2ccc4c(c2O)[C@@H](O)[C@@]25O[C@]2(C4=O)[C@@H]([C@@H](C)OC(C)=O)[C@@](C)(O)CC5=O)c(O)c1[C@H]3O`, with inactive: 1.03; and `O=c1[nH]c(=O)n([C@@H]2C[C@@H](O)[C@@H](CO)O2)cc1F`, with active: 0.0303.
In the case of `Cc1noc(C)c1S(=O)(=O)Nc1ccc2c(c1)C(=O)N([C@H](C)CO)C[C@H](C)[C@@H](CN(C)CC1CCCCC1)OCCCC[C@@H](C)O2`, the relative growth is inactive: 1.
Take `COc1ccc(S(=O)(=O)N(C)C[C@@H]2Oc3ccc(NC(=O)Nc4c(C)noc4C)cc3CC(=O)N([C@@H](C)CO)C[C@@H]2C)cc1`: the relative growth is inactive: 1.01.
Regarding `C[C@@H]1CN([C@H](C)CO)C(=O)c2cc(C#C[C@@H](C)O)cnc2O[C@H]1CN(C)C(=O)Nc1ccc(C(F)(F)F)cc1`, the relative growth is inactive: 0.99.
In the case of `N#C[C@@H]1C(=O)NC(=O)[C@@H](C#N)C12CCCC2` it was inactive: 0.934.
